Measurements: the supplement of paper PMC8728848
Some of the results follow.

Experiments:
Assay in all cases: glycan array binding signal (z-score within array); higher = stronger binding
Conditions in all cases: glycan notation: IUPAC condensed, linker removed
Fuc(a1-2)Gal = molecular target: Fuc(a1-2)Gal
Method in brief: (§1)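 The Consortium for Functional Glycomics database supplied 3228 glycan arrays, of which those lacking an available protein sequence were dropped. The binding signal, a within-array Z-score, was averaged across arrays of the same protein sequence and across linkers. Negative scores can be read as non-binding.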

Fuc(a1-2)Gal(b1-3)GalNAc = molecular target: Fuc(a1-2)Gal(b1-3)GalNAc
Method in brief: as §1

[1] = molecular target: Fuc(a1-2)Gal(b1-3)GalNAc(a1-3)[Fuc(a1-2)]Gal(b1-4)Glc
Method in brief: as §1

[2] = molecular target: Fuc(a1-2)Gal(b1-3)GalNAc(a1-3)[Fuc(a1-2)]Gal(b1-4)GlcNAc
Method in brief: as §1

[3] = molecular target: Fuc(a1-2)Gal(b1-3)GalNAc(b1-3)Gal
Method in brief: as §1

[4] = molecular target: Fuc(a1-2)Gal(b1-3)GalNAc(b1-3)Gal(a1-4)Gal(b1-4)Glc
Method in brief: as §1

[5] = molecular target: Fuc(a1-2)Gal(b1-3)GalNAc(b1-4)[Neu5Ac(a2-3)]Gal(b1-4)Glc
Method in brief: as §1

Fuc(a1-2)Gal(b1-3)GlcNAc = molecular target: Fuc(a1-2)Gal(b1-3)GlcNAc
Method in brief: as §1

[6] = molecular target: Fuc(a1-2)Gal(b1-3)GlcNAc(b1-2)Man(a1-3)[Fuc(a1-2)Gal(b1-3)GlcNAc(b1-2)Man(a1-6)]Man(b1-4)GlcNAc(b1-4)GlcNAc
Method in brief: as §1

[7] = molecular target: Fuc(a1-2)Gal(b1-3)GlcNAc(b1-2)Man(a1-3)[Fuc(a1-2)Gal(b1-3)GlcNAc(b1-2)Man(a1-6)]Man(b1-4)GlcNAc(b1-4)[Fuc(a1-6)]GlcNAc
Method in brief: as §1

[8] = molecular target: Fuc(a1-2)Gal(b1-3)GlcNAc(b1-3)Gal(b1-4)Glc
Method in brief: as §1

[9] = molecular target: Fuc(a1-2)Gal(b1-3)GlcNAc(b1-3)GalNAc
Method in brief: as §1

[10] = molecular target: Fuc(a1-2)Gal(b1-3)GlcNAc(b1-3)[Fuc(a1-2)Gal(b1-3)GlcNAc(b1-6)]GalNAc
Method in brief: as §1

[11] = molecular target: Fuc(a1-2)Gal(b1-3)GlcNAc(b1-3)[Gal(b1-4)GlcNAc(b1-6)]Gal(b1-4)Glc
Method in brief: as §1

[12] = molecular target: Fuc(a1-2)Gal(b1-3)GlcNAc(b1-3)[Neu5Ac(a2-6)Gal(b1-4)GlcNAc(b1-6)]Gal(b1-4)Glc
Method in brief: as §1

[13] = molecular target: Fuc(a1-2)Gal(b1-3)GlcNAc6S
Method in brief: as §1

[14] = molecular target: Fuc(a1-2)Gal(b1-3)[Fuc(a1-4)]GlcNAc
Method in brief: as §1

[15] = molecular target: Fuc(a1-2)Gal(b1-3)[Fuc(a1-4)]GlcNAc(b1-2)Man(a1-3)[Fuc(a1-2)Gal(b1-3)[Fuc(a1-4)]GlcNAc(b1-2)Man(a1-3)]Man(b1-4)GlcNAc(b1-4)GlcNAc
Method in brief: as §1

[16] = molecular target: Fuc(a1-2)Gal(b1-3)[Fuc(a1-4)]GlcNAc(b1-2)Man(a1-3)[Fuc(a1-2)Gal(b1-3)[Fuc(a1-4)]GlcNAc(b1-2)Man(a1-6)]Man(b1-4)GlcNAc(b1-4)[Fuc(a1-6)]GlcNAc(b1-4)[Fuc(a1-6)]GlcNAc
Method in brief: as §1

[17] = molecular target: Fuc(a1-2)Gal(b1-3)[Fuc(a1-4)]GlcNAc(b1-3)[Fuc(a1-3)[Gal(b1-4)]GlcNAc(b1-6)]Gal(b1-4)Glc
Method in brief: as §1

[18] = molecular target: Fuc(a1-2)Gal(b1-3)[Fuc(a1-4)]GlcNAc(b1-3)[Gal(b1-4)GlcNAc(b1-6)]Gal(b1-4)Glc
Method in brief: as §1

[19] = molecular target: Fuc(a1-2)Gal(b1-4)Fuc(a1-3)]GlcNAc(b1-2)Man(a1-3)[Fuc(a1-2)Gal(b1-4)[Fuc(a1-3)]GlcNAc(b1-2)Man(a1-6)]Man(b1-4)GlcNAc(b1-4)GlcNAc
Method in brief: as §1

Fuc(a1-2)Gal(b1-4)Glc = molecular target: Fuc(a1-2)Gal(b1-4)Glc
Method in brief: as §1

Fuc(a1-2)Gal(b1-4)Glc6S = molecular target: Fuc(a1-2)Gal(b1-4)Glc6S
Method in brief: as §1

Fuc(a1-2)Gal(b1-4)GlcNAc = molecular target: Fuc(a1-2)Gal(b1-4)GlcNAc
Method in brief: as §1

[20] = molecular target: Fuc(a1-2)Gal(b1-4)GlcNAc(b1-2)Man
Method in brief: as §1

[21] = molecular target: Fuc(a1-2)Gal(b1-4)GlcNAc(b1-2)Man(a1-3)[Fuc(a1-2)Gal(b1-4)GlcNAc(b1-2)Man(a1-6)]Man(b1-4)GlcNAc(b1-4)GlcNAc
Method in brief: as §1

[22] = molecular target: Fuc(a1-2)Gal(b1-4)GlcNAc(b1-2)Man(a1-3)[Fuc(a1-2)Gal(b1-4)GlcNAc(b1-2)Man(a1-6)]Man(b1-4)GlcNAc(b1-4)[Fuc(a1-6)]GlcNAc
Method in brief: as §1

[23] = molecular target: Fuc(a1-2)Gal(b1-4)GlcNAc(b1-2)[Fuc(a1-2)Gal(b1-4)GlcNAc(b1-4)]Man(a1-3)[Fuc(a1-2)Gal(b1-4)GlcNAc(b1-2)Man(a1-6)]Man(b1-4)GlcNAc(b1-4)GlcNAc
Method in brief: as §1

[24] = molecular target: Fuc(a1-2)Gal(b1-4)GlcNAc(b1-3)Gal(b1-4)GlcNAc
Method in brief: as §1

[25] = molecular target: Fuc(a1-2)Gal(b1-4)GlcNAc(b1-3)Gal(b1-4)GlcNAc(b1-2)Man(a1-3)[Fuc(a1-2)Gal(b1-4)GlcNAc(b1-3)Gal(b1-4)GlcNAc(b1-2)Man(a1-6)]Man(b1-4)GlcNAc(b1-4)GlcNAc
Method in brief: as §1

[26] = molecular target: Fuc(a1-2)Gal(b1-4)GlcNAc(b1-3)Gal(b1-4)GlcNAc(b1-3)Gal(b1-4)GlcNAc
Method in brief: as §1

[27] = molecular target: Fuc(a1-2)Gal(b1-4)GlcNAc(b1-3)GalNAc
Method in brief: as §1

[28] = molecular target: Fuc(a1-2)Gal(b1-4)GlcNAc(b1-3)[Fuc(a1-2)Gal(b1-4)GlcNAc(b1-6)]GalNAc
Method in brief: as §1

[29] = molecular target: Fuc(a1-2)Gal(b1-4)GlcNAc(b1-3)[Fuc(a1-3)[Gal(b1-4)]GlcNAc(b1-6)]Gal(b1-4)Glc
Method in brief: as §1

[30] = molecular target: Fuc(a1-2)Gal(b1-4)GlcNAc(b1-6)GalNAc
Method in brief: as §1

[31] = molecular target: Fuc(a1-2)Gal(b1-4)GlcNAc6S
Method in brief: as §1

[32] = molecular target: Fuc(a1-2)Gal(b1-4)[Fuc(a1-3)]GlcNAc
Method in brief: as §1

[33] = molecular target: Fuc(a1-2)Gal(b1-4)[Fuc(a1-3)]GlcNAc(b1-2)Man(a1-3)[Fuc(a1-2)Gal(b1-4)[Fuc(a1-3)]GlcNAc(b1-2)Man(a1-6)]Man(b1-4)GlcNAc(b1-4)[Fuc(a1-6)]GlcNAc
Method in brief: as §1

[34] = molecular target: Fuc(a1-2)Gal(b1-4)[Fuc(a1-3)]GlcNAc(b1-2)[Fuc(a1-2)Gal(b1-4)[Fuc(a1-3)]GlcNAc(b1-4)]Man(a1-3)[Fuc(a1-2)Gal(b1-4)[Fuc(a1-3)]GlcNAc(b1-2)Man(a1-6)]Man(b1-4)GlcNAc(b1-4)GlcNAc
Method in brief: as §1

[35] = molecular target: Fuc(a1-2)Gal(b1-4)[Fuc(a1-3)]GlcNAc(b1-3)Gal(b1-4)[Fuc(a1-3)]GlcNAc
Method in brief: as §1

[36] = molecular target: Fuc(a1-2)Gal(b1-4)[Fuc(a1-3)]GlcNAc(b1-3)Gal(b1-4)[Fuc(a1-3)]GlcNAc(b1-3)Gal(b1-4)[Fuc(a1-3)]GlcNAc
Method in brief: as §1

[37] = molecular target: Fuc(a1-2)Gal(b1-4)[Fuc(a1-3)]GlcNAc(b1-3)GalNAc
Method in brief: as §1

[38] = molecular target: Fuc(a1-2)Gal(b1-4)[Fuc(a1-3)]GlcNAc(b1-3)[Neu5Ac(a2-6)Gal(b1-4)GlcNAc(b1-6)]Gal(b1-4)Glc
Method in brief: as §1

[39] = molecular target: Fuc(a1-2)Gal3S(b1-4)GlcNAc
Method in brief: as §1

B1: PVL (Psathyrella velutina), Q309D1_9AGAR (protein)
chain: MSVVVISQALPVPTRIPGVADLVGFGNGGVYIIRNSLLIQVVKVINNFGYDAGGWRVEKHVRLLADTTGDNQPDVVGFGENGVWISTNNGNNTFVDPPKMVLANFAYAAGGWRVEKHIRFMADLRKTGRADIVGFGDGGIYISRNNGGGQFAPAQLALNNFGYAQGWRLDRHLRFLADVTGDGLLDVVGFGENQVYIARNSGNGTFQPAQAVVNNFCIGAGGWTISAHPRVVADLTGDRKADILGFGVAGVYTSLNNGNGTFGAVNLVLKDFGVNSGWRVEKHVRCVSSLTNKKVGDIIGFGDAGVYVALNNGNGTFGPVKRVIDNFGYNQGWRVDKHPRFVVDLTGDGCADIVGFGENSVWACMNKGDGTFGPIMKLIDDMTVSKGWTLQKTVRYAANLYL
glycan array binding signal (z-score) (Fuc(a1-2)Gal): -0.41 | glycan array binding signal (z-score) (Fuc(a1-2)Gal(b1-3)GalNAc): -0.378 | glycan array binding signal (z-score) [1]: -0.371 | glycan array binding signal (z-score) [2]: -0.371 | glycan array binding signal (z-score) [3]: -0.367 | glycan array binding signal (z-score) [4]: -0.356 | glycan array binding signal (z-score) [5]: -0.334 | glycan array binding signal (z-score) (Fuc(a1-2)Gal(b1-3)GlcNAc): -0.372 | glycan array binding signal (z-score) [6]: -0.345 | glycan array binding signal (z-score) [7]: -0.362 | glycan array binding signal (z-score) [8]: -0.371 | glycan array binding signal (z-score) [9]: -0.365 | glycan array binding signal (z-score) [10]: -0.366 | glycan array binding signal (z-score) [11]: -0.366 | glycan array binding signal (z-score) [12]: -0.367 | glycan array binding signal (z-score) [13]: -0.361 | glycan array binding signal (z-score) [14]: -0.371 | glycan array binding signal (z-score) [15]: -0.362 | glycan array binding signal (z-score) [16]: -0.319 | glycan array binding signal (z-score) [17]: -0.372 | glycan array binding signal (z-score) [18]: -0.374 | glycan array binding signal (z-score) [19]: -0.34 | glycan array binding signal (z-score) (Fuc(a1-2)Gal(b1-4)Glc): -0.438 | glycan array binding signal (z-score) (Fuc(a1-2)Gal(b1-4)Glc6S): -0.371 | glycan array binding signal (z-score) (Fuc(a1-2)Gal(b1-4)GlcNAc): -0.345 | glycan array binding signal (z-score) [20]: -0.366 | glycan array binding signal (z-score) [21]: -0.349 | glycan array binding signal (z-score) [22]: -0.365 | glycan array binding signal (z-score) [23]: -0.369 | glycan array binding signal (z-score) [24]: -0.283 | glycan array binding signal (z-score) [25]: 0.321 | glycan array binding signal (z-score) [26]: -0.133 | glycan array binding signal (z-score) [27]: -0.347 | glycan array binding signal (z-score) [28]: -0.206 | glycan array binding signal (z-score) [29]: -0.364 | glycan array binding signal (z-score) [30]: -0.353 | glycan array binding signal (z-score) [31]: -0.35 | glycan array binding signal (z-score) [32]: -0.367 | glycan array binding signal (z-score) [33]: -0.332 | glycan array binding signal (z-score) [34]: -0.37 | glycan array binding signal (z-score) [35]: -0.361 | glycan array binding signal (z-score) [36]: -0.344 | glycan array binding signal (z-score) [37]: -0.371 | glycan array binding signal (z-score) [38]: -0.366 | glycan array binding signal (z-score) [39]: -0.37
